{"source": "PubChem BioAssay (Tox21)", "note": "Where “and” joins values, the source holds several entries; their conditions need not be identical. Identical values can stand only once. This list was built around the results that the source calls inconclusive (neither active nor inactive); the mix of calls is not that of the screen. Potencies of inconclusive entries are doubtful fits and often do not repeat. A structure can be active in one record and inactive in another. Calls of active or inactive are those of the source. The call rests on the fitted dose curve; in most records, active means well fitted inhibition curve with a large enough effect in the repeat runs; inconclusive means weak or mixed curves, or effect the other way; inactive means no such curve, though single readings can be large or run the other way. Potency means the concentration at half of the fitted maximal effect; tags describe the fitted curve by direction and shape.", "data": [{"assay": "qHTS assay to identify small molecule antagonists of the retinoic acid receptor (RAR) signaling pathway (AID 1159552; further: nearly all actives have a fitted effect of over 50% in size)", "settings": "C3RL4 RARE luciferase reporter, retinol-stimulated, 6 h; series mostly up to 92.4 µM", "from_the_text": "National Center for Advancing Translational Sciences [NCATS]\nNIH Chemical Genomics Center [NCGC]\nU.S. Environmental Protection Agency [EPA]\nNational Institutes of Environmental Health Sciences [NIEHS]\nNational Toxicology Program [NTP]\nU.S. Food and Drug Administration [FDA]\nAll-trans Retinoic acid (atRA) is the potent natural metabolite of retinol and plays an important role in normal embryonic development and maintenance of cellular phenotype in adult animals. atRA is the activating ligand for the retinoic acid receptors (RARs) which form heterodimers with retinoid X receptors (RXRs) on the retinoic acid response element (RARE). Through activation of the RAR/RXRs nuclear receptors, atRA regulates the transcription of a large number of protein-coding genes and regulatory RNAs. Intracellular levels of atRA are controlled by the retinol signaling pathway (RSP) that regulates the biosynthesis and catabolism of atRA to maintain physiological levels. Chemicals that interfere with the RSP can cause abnormal intracellular levels of atRA and therefore are potential developmental toxicants. To assess compounds for the potential adverse effect on embryonic development through interfering with retinol signaling, a cell-based RARE luciferase reporter gene assay was used. C3RL4 cell line (OARSA/CFSAN/FDA, Laurel, MD) was used to screen Tox21 10K compound library for identifying inhibitors of the RSP.\nTox21 Assay Protocol Summary:\nC3RL4 cells were seeded at 1,000/well in 4 uL of assay medium into white solid 1,536-well tissue culture plates (Greiner Bio-One North America Inc. Monroe, NC) using a Multidrop Combi (Thermo Scientific, Waltham, MA) dispenser. After incubation at 37 C and 5% CO2 for an overnight, 23 nL of compounds dissolved in DMSO, positive control or DMSO only were transferred by a Pintool station (Kalypsys, San Diego, CA). One ul of 1 uM (final concentration) of Retinol was added right after the compound addition by using a Flying Reagent Dispenser (FRD) (Aurora Discovery, San Diego, CA). After 6 hr incubation at 37 C and 5% CO2, 5 uL of Amplite Luciferase reagent (AAT Bioquest Inc. Sunnyvale, CA) was added to each assay plate using an FRD. Luminescence was quantified on a ViewLux plate reader (PerkinElmer, Waltham, MA) after 30 min incubation at room temperature.", "values": [{"smiles": "Cc1cc(C)cc(OP(=O)(Oc2cc(C)cc(C)c2)Oc2cc(C)cc(C)c2)c1", "Potency": "inconclusive: 78.2 µM [inhibitor, partial curve, poor fit]"}, {"smiles": "Clc1ccc(CO/N=C(\\Cn2ccnc2)c2ccc(Cl)cc2Cl)c(Cl)c1", "Potency": "inconclusive: 33.5 µM [inhibitor, single point]"}, {"smiles": "CC(C)(OO)c1ccccc1", "Potency": "inactive"}, {"smiles": "CC(C)C#N", "Potency": "active: 16.3 µM"}, {"smiles": "CCOCCOC(C)=O", "Potency": "inconclusive: 27.3 µM [inhibitor, partial curve]"}, {"smiles": "CCC(COC(=O)c1cc(OC)c(OC)c(OC)c1)(c1ccccc1)N(C)C", "note": "(stereo not given)", "Potency": "inconclusive: 23.7 µM [inhibitor, partial curve, poor fit]"}, {"smiles": "N#CCCC#N", "Potency": "inconclusive: 26.7 µM [inhibitor, partial curve]"}, {"smiles": "Oc1c(Cl)c(Cl)cc(Cl)c1Cl", "Potency": "active: 66.7 µM"}, {"smiles": "BrCC(Br)C1CCC(Br)C(Br)C1", "note": "(stereo not given)", "Potency": "inconclusive: 68.2 µM [inhibitor, partial curve, poor fit]"}, {"smiles": "C#C[C@]1(O)C=C[C@H]2[C@@H]3CCC4=CC(=O)CC[C@@H]4[C@H]3CC[C@@]21CC", "Potency": "active: 11.9 µM"}, {"smiles": "COC(=O)N(C(=O)N1COC2(C(=O)OC)Cc3cc(Cl)ccc3C2=N1)c1ccc(OC(F)(F)F)cc1", "note": "(stereo not given)", "Potency": "inconclusive: 15 µM [inhibitor, partial curve]"}, {"smiles": "N[C@@H](Cc1ccc(N(CCCl)CCCl)cc1)C(=O)O", "Potency": "inconclusive: 11.7 µM [inhibitor, partial curve, poor fit] and inconclusive: 26.6 µM [inhibitor, partial curve]"}, {"smiles": "CCN(CC)c1c([N+](=O)[O-])cc(C(F)(F)F)c(N)c1[N+](=O)[O-]", "Potency": "inconclusive: 24.3 µM [inhibitor, full curve]"}, {"smiles": "O=C(c1ccccc1)C(Cl)Cl", "Potency": "active: 24.3 µM"}, {"smiles": "Nc1n[nH]c(N)n1", "Potency": "inconclusive: 27.8 µM [inhibitor, partial curve, poor fit]"}, {"smiles": "CC(Cc1ccccc1)N(C)Cc1ccco1", "note": "(stereo not given)", "Potency": "inactive"}, {"smiles": "C[CH2][Hg][N]1C(=O)C2C(C1=O)C1(Cl)C(Cl)=C(Cl)C2(Cl)C1(Cl)Cl", "note": "(stereo not given)", "Potency": "active: 11.6 µM"}, {"smiles": "O=c1[nH]c2ccccc2n1CCCN1CCC(n2c(=O)[nH]c3cc(Cl)ccc32)CC1", "Potency": "inactive"}, {"smiles": "CC(C)Nc1ccc(Nc2ccccc2)cc1", "Potency": "inconclusive: 68.3 µM [inhibitor, single point] and inconclusive: 68.6 µM [inhibitor, single point]"}, {"smiles": "O=C(O)C(Br)(Br)Br", "Potency": "inactive"}, {"smiles": "O=C(OC1CCCCC1)c1ccccc1C(=O)OC1CCCCC1", "Potency": "inconclusive: 64.4 µM [inhibitor]"}, {"smiles": "CCOC(=O)OC1=C(c2cc(C)ccc2C)C(=O)NC12CCC(OC)CC2", "note": "(stereo not given)", "Potency": "active: 43.2 µM"}, {"smiles": "Cc1cc(Cl)ccc1N", "Potency": "inactive"}, {"smiles": "O=C(NC(=O)c1c(F)cccc1F)Nc1cc(Cl)c(Oc2ncc(C(F)(F)F)cc2Cl)c(Cl)c1", "Potency": "inconclusive: 58.5 µM [inhibitor, single point]"}, {"smiles": "CN(C)CCc1c[nH]c2cccc(OP(=O)(O)O)c12", "Potency": "inactive"}, {"smiles": "CSC(=O)c1c(C(F)F)nc(C(F)(F)F)c(C(=O)SC)c1CC(C)C", "Potency": "inconclusive: 43 µM [inhibitor, partial curve]"}, {"smiles": "C[C@]12CC[C@@H](O)C[C@@H]1CC[C@@H]1[C@@H]2CC[C@]2(C)C(=O)CC[C@@H]12", "Potency": "inconclusive: 43.3 µM [inhibitor, partial curve]"}, {"smiles": "O=C1OC(c2ccc(O)c(S(=O)(=O)O)c2)(c2ccc(O)c(S(=O)(=O)O)c2)c2c(Br)c(Br)c(Br)c(Br)c21", "Potency": "inactive"}, {"smiles": "CCC(=O)C(CC(C)N(C)C)(c1ccccc1)c1ccccc1", "note": "(stereo not given)", "Potency": "inconclusive: 24.2 µM [inhibitor, partial curve] and inconclusive: 37 µM [inhibitor, partial curve, poor fit]"}, {"smiles": "O=C1C[C@@H]2OCC=C3CN4CC[C@]56c7ccccc7N1[C@H]5[C@H]2[C@H]3C[C@H]46", "Potency": "inconclusive: 33.5 µM [inhibitor, partial curve, poor fit]"}, {"smiles": "CCCCN(N=O)C(=N)N[N+](=O)[O-]", "Potency": "inconclusive: 27.9 µM [inhibitor, partial curve]"}, {"smiles": "C=CC(=O)NCNC(=O)C=C", "Potency": "inconclusive: 21.6 µM [inhibitor, full curve]"}, {"smiles": "Nc1ccc(Cc2ccc(N)c(Cl)c2)cc1Cl", "Potency": "inconclusive: 59.1 µM [inhibitor, single point]"}, {"smiles": "CC(C)(C)c1cc([N+](=O)[O-])cc(C(C)(C)C)c1O", "Potency": "active: 15.4 µM"}, {"smiles": "CCOP(=O)(CN(CCO)CCO)OCC", "Potency": "inactive"}, {"smiles": "N#CSCc1ccccc1", "Potency": "active: 48.8 µM"}, {"smiles": "N#CC(Br)Br", "Potency": "inactive"}, {"smiles": "N#CCCl", "Potency": "inconclusive: 80.2 µM [inhibitor, single point]"}, {"smiles": "C#C[C@]1(O)CC[C@H]2[C@@H]3CCC4=CC(=O)CCC4=C3C=C[C@@]21CC", "Potency": "active: 9.44 µM"}, {"smiles": "O=S(=O)(C(Cl)(Cl)Cl)C(Cl)(Cl)Cl", "Potency": "active: 9.69 µM"}]}]}
